No constants are given. Whether binding was seen depends on the method and setting. For part of these data: In cells and extracts the contact can be indirect. Some results given as binding are weak or reduced against the parent protein; the word gives no strength. For part of these data: Sequences can lack the tags named with a protein.

Protein sequences, listed by entry. Tags and fused reporters are not part of them. Lines headed by an entry give the natural chain unless they say otherwise; changes in a name come on top. Chains listed by the source or under a name are the forms on record and can include a tag or linker.
UniProt Q86TI2: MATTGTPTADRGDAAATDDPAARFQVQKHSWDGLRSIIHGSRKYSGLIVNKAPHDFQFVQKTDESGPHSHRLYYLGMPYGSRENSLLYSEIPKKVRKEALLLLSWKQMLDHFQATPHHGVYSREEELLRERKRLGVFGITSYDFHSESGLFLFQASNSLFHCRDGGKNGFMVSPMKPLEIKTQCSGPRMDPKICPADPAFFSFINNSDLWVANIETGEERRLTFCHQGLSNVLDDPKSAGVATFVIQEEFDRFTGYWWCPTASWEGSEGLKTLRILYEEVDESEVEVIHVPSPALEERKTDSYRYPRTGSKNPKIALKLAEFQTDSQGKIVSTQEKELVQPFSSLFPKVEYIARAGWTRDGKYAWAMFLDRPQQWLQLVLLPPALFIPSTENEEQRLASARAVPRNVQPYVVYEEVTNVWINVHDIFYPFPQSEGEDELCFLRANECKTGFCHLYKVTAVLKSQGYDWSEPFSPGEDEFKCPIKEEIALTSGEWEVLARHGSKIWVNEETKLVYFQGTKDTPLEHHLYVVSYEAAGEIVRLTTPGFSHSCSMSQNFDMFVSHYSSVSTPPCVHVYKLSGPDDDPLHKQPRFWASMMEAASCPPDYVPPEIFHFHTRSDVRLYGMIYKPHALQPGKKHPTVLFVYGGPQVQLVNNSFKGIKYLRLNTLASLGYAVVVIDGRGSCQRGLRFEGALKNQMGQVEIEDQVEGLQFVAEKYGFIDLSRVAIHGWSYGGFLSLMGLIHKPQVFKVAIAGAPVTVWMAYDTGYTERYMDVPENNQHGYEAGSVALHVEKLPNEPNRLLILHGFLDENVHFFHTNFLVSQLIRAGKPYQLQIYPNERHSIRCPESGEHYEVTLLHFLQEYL
hDPP9(L131E) (non-tagged, recombinant) (Q86TI2-2, form named): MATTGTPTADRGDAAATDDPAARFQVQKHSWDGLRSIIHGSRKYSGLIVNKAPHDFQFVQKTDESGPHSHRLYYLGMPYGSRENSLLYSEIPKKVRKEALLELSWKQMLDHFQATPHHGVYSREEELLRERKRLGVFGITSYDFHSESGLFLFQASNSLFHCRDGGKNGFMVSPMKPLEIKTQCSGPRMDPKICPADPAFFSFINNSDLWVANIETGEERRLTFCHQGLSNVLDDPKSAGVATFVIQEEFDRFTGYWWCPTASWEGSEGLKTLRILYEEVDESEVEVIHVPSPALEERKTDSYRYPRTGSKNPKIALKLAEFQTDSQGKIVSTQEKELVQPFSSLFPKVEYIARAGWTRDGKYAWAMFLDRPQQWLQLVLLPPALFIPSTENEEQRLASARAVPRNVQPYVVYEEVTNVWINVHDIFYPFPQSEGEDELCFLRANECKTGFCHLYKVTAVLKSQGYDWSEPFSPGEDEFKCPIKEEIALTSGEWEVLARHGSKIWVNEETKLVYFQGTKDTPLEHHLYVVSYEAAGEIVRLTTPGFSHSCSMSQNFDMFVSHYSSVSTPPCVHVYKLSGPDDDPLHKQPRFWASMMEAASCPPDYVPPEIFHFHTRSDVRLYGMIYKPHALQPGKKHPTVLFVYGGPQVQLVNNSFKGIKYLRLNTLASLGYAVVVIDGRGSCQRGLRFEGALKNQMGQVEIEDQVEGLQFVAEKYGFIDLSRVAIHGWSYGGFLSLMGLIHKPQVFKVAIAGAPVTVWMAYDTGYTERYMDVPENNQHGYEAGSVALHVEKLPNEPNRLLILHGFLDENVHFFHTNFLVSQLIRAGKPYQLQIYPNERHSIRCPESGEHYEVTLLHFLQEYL
Flag–hDPP9 (wild type) (Q86TI2-2, form named): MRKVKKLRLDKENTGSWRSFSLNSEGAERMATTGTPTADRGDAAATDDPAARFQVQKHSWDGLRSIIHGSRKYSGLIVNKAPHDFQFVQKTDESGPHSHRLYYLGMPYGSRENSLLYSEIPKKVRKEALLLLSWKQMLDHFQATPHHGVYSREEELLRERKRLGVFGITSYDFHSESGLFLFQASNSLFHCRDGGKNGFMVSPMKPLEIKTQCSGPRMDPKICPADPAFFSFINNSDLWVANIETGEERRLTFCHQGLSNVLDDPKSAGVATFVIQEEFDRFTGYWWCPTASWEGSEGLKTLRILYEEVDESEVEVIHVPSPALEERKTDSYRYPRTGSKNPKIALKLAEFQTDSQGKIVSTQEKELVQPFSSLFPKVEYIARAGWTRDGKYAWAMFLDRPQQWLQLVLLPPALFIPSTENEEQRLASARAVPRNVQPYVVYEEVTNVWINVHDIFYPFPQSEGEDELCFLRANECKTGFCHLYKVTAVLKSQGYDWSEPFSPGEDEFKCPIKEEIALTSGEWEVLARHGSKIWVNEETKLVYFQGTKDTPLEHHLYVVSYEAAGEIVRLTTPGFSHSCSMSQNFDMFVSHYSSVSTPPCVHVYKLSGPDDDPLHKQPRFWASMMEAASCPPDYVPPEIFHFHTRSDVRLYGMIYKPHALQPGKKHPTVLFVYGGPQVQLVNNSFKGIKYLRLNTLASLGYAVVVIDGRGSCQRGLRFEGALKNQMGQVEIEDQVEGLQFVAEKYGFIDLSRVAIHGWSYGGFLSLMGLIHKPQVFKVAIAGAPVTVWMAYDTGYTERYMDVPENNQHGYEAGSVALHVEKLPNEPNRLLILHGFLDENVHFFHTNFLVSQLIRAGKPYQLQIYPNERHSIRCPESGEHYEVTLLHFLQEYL
Flag–hDPP9(L131E) (Q86TI2-2, form named): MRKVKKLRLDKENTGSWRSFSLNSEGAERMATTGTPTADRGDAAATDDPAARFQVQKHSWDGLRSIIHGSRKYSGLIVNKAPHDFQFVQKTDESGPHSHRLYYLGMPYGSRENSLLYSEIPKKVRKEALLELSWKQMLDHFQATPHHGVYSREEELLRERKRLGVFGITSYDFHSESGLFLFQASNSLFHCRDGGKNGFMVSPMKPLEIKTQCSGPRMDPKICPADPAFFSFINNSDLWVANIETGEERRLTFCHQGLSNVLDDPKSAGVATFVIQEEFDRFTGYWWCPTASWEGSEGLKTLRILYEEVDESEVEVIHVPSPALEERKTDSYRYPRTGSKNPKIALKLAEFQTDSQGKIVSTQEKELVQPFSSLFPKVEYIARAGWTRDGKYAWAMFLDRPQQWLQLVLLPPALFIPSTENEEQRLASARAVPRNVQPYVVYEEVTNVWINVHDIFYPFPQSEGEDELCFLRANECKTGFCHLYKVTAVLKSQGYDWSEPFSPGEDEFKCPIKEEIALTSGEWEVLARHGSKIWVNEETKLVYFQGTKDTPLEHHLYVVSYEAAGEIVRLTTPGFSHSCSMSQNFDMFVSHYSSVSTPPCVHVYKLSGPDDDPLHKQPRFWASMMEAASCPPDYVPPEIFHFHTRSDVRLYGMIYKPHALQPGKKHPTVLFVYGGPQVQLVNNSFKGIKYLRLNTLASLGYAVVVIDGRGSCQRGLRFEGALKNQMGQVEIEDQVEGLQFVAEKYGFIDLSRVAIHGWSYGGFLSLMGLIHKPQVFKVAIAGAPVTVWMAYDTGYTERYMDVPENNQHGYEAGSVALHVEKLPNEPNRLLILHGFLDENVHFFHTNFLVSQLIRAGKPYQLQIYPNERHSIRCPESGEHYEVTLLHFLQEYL
UniProt Q9Y2G2: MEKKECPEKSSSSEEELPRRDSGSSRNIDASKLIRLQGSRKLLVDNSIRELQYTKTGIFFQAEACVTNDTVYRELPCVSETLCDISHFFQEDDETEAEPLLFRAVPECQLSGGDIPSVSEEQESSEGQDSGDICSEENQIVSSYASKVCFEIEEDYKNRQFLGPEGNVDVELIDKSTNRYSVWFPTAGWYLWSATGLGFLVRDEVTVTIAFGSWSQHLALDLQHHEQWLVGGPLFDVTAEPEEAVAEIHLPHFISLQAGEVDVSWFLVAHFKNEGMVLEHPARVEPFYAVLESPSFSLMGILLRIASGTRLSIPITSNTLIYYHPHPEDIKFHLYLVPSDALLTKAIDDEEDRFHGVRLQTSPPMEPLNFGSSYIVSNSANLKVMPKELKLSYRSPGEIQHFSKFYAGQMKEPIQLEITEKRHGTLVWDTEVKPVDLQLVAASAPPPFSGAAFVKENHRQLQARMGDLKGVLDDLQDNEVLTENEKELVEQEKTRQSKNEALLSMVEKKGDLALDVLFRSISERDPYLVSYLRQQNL

Test [1] concerns the target hDPP9 (non-tagged, recombinant) (human) (UniProt Q86TI2). Kind of test: SEC; the two proteins co-expressed in insect cells, complex purified on GS4B resin, GST removed with PreScission protease, then gel filtration; fractions on SDS–PAGE with Coomassie staining; both purified. For orientation: SEC sorts molecules by how far they enter the pores of the column.
Test [2] deals with full-length GST–CARD8 (human) (UniProt Q9Y2G2). Kind of test: pull-down; GST fusion held on GS4B resin, incubated with an excess of purified DPP9 on ice for 60 min, washed five times with 10 mM Tris pH 8.0, 100 mM NaCl, eluted with GSH; SDS–PAGE with Coomassie staining; also with or without VbP; both purified.
The target in test [3] is rNLRP1 FIIND (residues 822-1122), autoprocessed (rat) (UniProt D9I2G3). Kind of test: SEC; purified rNLRP1 FIIND alone; gel-filtration profile and SDS–PAGE; both purified.
Test [4] deals with Flag–hDPP9 (wild type) (human) (UniProt Q86TI2). Kind of test: co-IP; lysates of transfected 293T cells collected 48 h post transfection, anti-Flag immunoprecipitation, immunoblot.
For test [5], the target named is Flag–hDPP9(L131E) (human) (UniProt Q86TI2). Described as above.

Turning to “full-length CARD8 (GST removed) (from UniProt Q9Y2G2 1-537)”, in test [1], the binding result is on record as “binds”. Regarding “hDPP9 (non-tagged, recombinant) (from UniProt Q86TI2-2 30-892) (enzyme)”, the binding result in test [2] was “binds”.

“hDPP9(L131E) (non-tagged, recombinant) (from UniProt Q86TI2-2 30-892) (enzyme)”: the binding result in test [2] was “no binding”.

B1: rNLRP1 FIIND (residues 822-1122), autoprocessed (domain or fragment, UniProt D9I2G3 822-968; D9I2G3 969-1122)
chain 1: GDKHMEPLGTDDDFWGPSGPVSTEVVDRERNLYRVRLPMAGSYHCPSTGLHFVVTRAVTIEIGFCAWSQFLHETPLQHSHMVAGPLFDIKAEHGAVTAVCLPHFVSLQEGKVDSSLFHVAHFQDHGMVLETPARVEPHFAVLENPSF
chain 2: SPMGVLLRMIPAVGHFIPITSITLIYYRLYLEDITFHLYLVPNDCTIRKAIDEEELKFQFVRINKPPPVDALYVGSRYIVSSSKEVEILPKELELCYRSPRESQLFSEIYVGNIGSGINLQLTDKKYMNLIWEALLKPGDLRPALPRMASAPKD
Turning to B1, in test [3], the binding entry is given as “no binding”.

B2: HA-tagged hNLRP1 (protein, UniProt Q9C000 1-1473)
chain: MAGGAWGRLACYLEFLKKEELKEFQLLLANKAHSRSSSGETPAQPEKTSGMEVASYLVAQYGEQRAWDLALHTWEQMGLRSLCAQAQEGAGHSPSFPYSPSEPHLGSPSQPTSTAVLMPWIHELPAGCTQGSERRVLRQLPDTSGRRWREISASLLYQALPSSPDHESPSQESPNAPTSTAVLGSWGSPPQPSLAPREQEAPGTQWPLDETSGIYYTEIREREREKSEKGRPPWAAVVGTPPQAHTSLQPHHHPWEPSVRESLCSTWPWKNEDFNQKFTQLLLLQRPHPRSQDPLVKRSWPDYVEENRGHLIEIRDLFGPGLDTQEPRIVILQGAAGIGKSTLARQVKEAWGRGQLYGDRFQHVFYFSCRELAQSKVVSLAELIGKDGTATPAPIRQILSRPERLLFILDGVDEPGWVLQEPSSELCLHWSQPQPADALLGSLLGKTILPEASFLITARTTALQNLIPSLEQARWVEVLGFSESSRKEYFYRYFTDERQAIRAFRLVKSNKELWALCLVPWVSWLACTCLMQQMKRKEKLTLTSKTTTTLCLHYLAQALQAQPLGPQLRDLCSLAAEGIWQKKTLFSPDDLRKHGLDGAIISTFLKMGILQEHPIPLSYSFIHLCFQEFFAAMSYVLEDEKGRGKHSNCIIDLEKTLEAYGIHGLFGASTTRFLLGLLSDEGEREMENIFHCRLSQGRNLMQWVPSLQLLLQPHSLESLHCLYETRNKTFLTQVMAHFEEMGMCVETDMELLVCTFCIKFSRHVKKLQLIEGRQHRSTWSPTMVVLFRWVPVTDAYWQILFSVLKVTRNLKELDLSGNSLSHSAVKSLCKTLRRPRCLLETLRLAGCGLTAEDCKDLAFGLRANQTLTELDLSFNVLTDAGAKHLCQRLRQPSCKLQRLQLVSCGLTSDCCQDLASVLSASPSLKELDLQQNNLDDVGVRLLCEGLRHPACKLIRLGLDQTTLSDEMRQELRALEQEKPQLLIFSRRKPSVMTPTEGLDTGEMSNSTSSLKRQRLGSERAASHVAQANLKLLDVSKIFPIAEIAEESSPEVVPVELLCVPSPASQGDLHTKPLGTDDDFWGPTGPVATEVVDKEKNLYRVHFPVAGSYRWPNTGLCFVMREAVTVEIEFCVWDQFLGEINPQHSWMVAGPLLDIKAEPGAVEAVHLPHFVALQGGHVDTSLFQMAHFKEEGMLLEKPARVELHHIVLENPSFSPLGVLLKMIHNALRFIPVTSVVLLYHRVHPEEVTFHLYLIPSDCSIRKAIDDLEMKFQFVRIHKPPPLTPLYMGCRYTVSGSGSGMLEILPKELELCYRSPGEDQLFSEFYVGHLGSGIRLQVKDKKDETLVWEALVKPGDLMPATTLIPPARIAVPSPLDAPQLLHFVDQYREQLIARVTSVEVVLDKLHGQVLSQEQYERVLAENTRPSQMRKLFSLSQSWDRKCKDGLYQALKETHPHLIMELWEKGSKKGLLPLSS
Turning to B2, the binding entry in test [4] is “binds”; in test [5], “no binding”.
